Results reported in PubChem BioAssay AID588342 (National Center for Advancing Translational Sciences (NCATS), 2011).
Hit rate of the full screen: of about 360,000 compounds, about 25,000 (6.9%) were called active. Inconclusive means that the source gave no clear call. Such entries were picked first, then a sample of the others. Calls follow the shape of the dose curve; as a rule, active = well fitted inhibition curve with a large enough effect; inconclusive = small, poorly fitted or top-dose-only effect; inactive = flat fitted curve, though single readings scatter. Potencies beside an inconclusive call are fits to weak or partial responses and may not hold up.

What follows are compounds tested against Luciferin 4-monooxygenase (Photinus pyralis) (UniProt P08659) (assay: qHTS profiling assay for firefly luciferase inhibitor/activator using purifed enzyme and Km concentrations of substrates (counterscreen for miR-21 project)). Settings: purified FLuc, luminescence inhibition; activity change, negative = inhibition: at 57.5 µM (top of the series).
Chain of UniProt P08659 (P08659 whole entry, looked up): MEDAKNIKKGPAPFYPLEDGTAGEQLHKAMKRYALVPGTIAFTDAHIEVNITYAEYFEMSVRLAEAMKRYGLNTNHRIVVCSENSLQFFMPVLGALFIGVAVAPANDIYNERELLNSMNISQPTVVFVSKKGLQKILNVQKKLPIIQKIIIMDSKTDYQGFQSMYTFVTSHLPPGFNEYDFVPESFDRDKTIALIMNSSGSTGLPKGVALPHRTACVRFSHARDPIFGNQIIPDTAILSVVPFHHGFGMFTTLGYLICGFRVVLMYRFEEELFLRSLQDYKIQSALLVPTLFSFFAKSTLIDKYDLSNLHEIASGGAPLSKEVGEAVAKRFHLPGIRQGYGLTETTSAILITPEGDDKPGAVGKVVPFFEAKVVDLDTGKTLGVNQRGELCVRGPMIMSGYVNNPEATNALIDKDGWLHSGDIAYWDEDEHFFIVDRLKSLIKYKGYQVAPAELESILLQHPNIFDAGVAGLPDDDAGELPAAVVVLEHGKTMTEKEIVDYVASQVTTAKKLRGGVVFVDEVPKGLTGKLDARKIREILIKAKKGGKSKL
Procedure, shortened: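 Biochemical qHTS of compounds, final roughly 60 µM downward over six points, against 10 nM purified firefly luciferase using Km concentrations of substrates (10 uM D-luciferin, 10 uM ATP) in Tris acetate pH 7.5 buffer; luminescence output.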
Also: nearly all actives have a fitted effect of over 55% in size.
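For activity change, negative = inhibition in this document: plate controls were vehicle for no effect and reference inhibitor for full effect.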
Potency is read from the fitted curve at half-maximal effect; tags tell the direction and shape of the fitted curve.

SMILES	Potency	activity change, negative = inhibition
Cc1cccnc1NC(=S)NC(=O)/C=C/c1ccccc1	inconclusive: 37.9 µM [inhibitor, single point]	
Cc1ccc(CCNC(=O)CCS(=O)(=O)c2cc3c(cc2Cl)NC(=O)CO3)cc1	inactive	
COc1ccc(CNC(=O)C2=CC(c3cccc(OC)c3)=NS(=O)(=O)N2C)cc1	inactive	
Cc1ccc(C(=O)COC(=O)CCN2C(=O)C3C4C=CC(C5CC45)C3C2=O)cc1 (stereo not given)	inconclusive: 26.9 µM [inhibitor, partial curve, poor fit]	
N#CCCn1cc(/C=N/NC(=O)c2ccncc2)c(-c2ccccc2)n1	inactive	
O=C(NCc1ccco1)c1cc(S(=O)(=O)N2CCCC2)ccc1Cl	inactive	
COc1ccc(CSCC(=O)NCCC(C)C)cc1	inactive	
Cc1ccc(C(=O)O/N=C(\N)c2ccc(C(F)(F)F)cn2)cc1	active: 2.13 µM	
Cc1coc2cc3oc(=O)c(CCC(=O)O)c(C)c3cc12	inconclusive: 30.1 µM [inhibitor, partial curve, poor fit]	
O=C(NC1CCCC1)c1c[nH]c2ccc(F)cc2c1=O	inconclusive: 30.1 µM [inhibitor, partial curve, poor fit]	
Cc1ccn2c(NC3CCCC3)c(-c3cccs3)nc2c1	active: 19 µM	
Cc1ccccc1Nc1c(-c2ccc(N3CCOCC3)cc2)nc2cnccn12	active: 1.51 µM	
CCOC(=O)c1ccc(COC(=O)c2ccc3c(c2)-c2ccccc2C3=O)cc1	inactive	
O=C(COC(=O)c1c(Cl)cccc1Cl)Nc1ccccc1Br	inconclusive: 30.1 µM [inhibitor, single point]	
COc1ccc(-c2cc3ncccc3cn2)cc1	active: 5.36 µM	
Cc1ccc(NC(=O)C2CCCO2)cc1[N+](=O)[O-] (stereo not given)	inactive	
CCCOc1ccc(C(=O)Nc2ccc3oc(-c4ccc(N(C)C)cc4)nc3c2)cc1	inactive	
COc1ccc(C(C)=O)cc1COC(=O)c1cc2ccccc2cc1O	inactive	
CC(C)(C)c1ccc(C(=O)Nc2cccc3c(=O)[nH][nH]c(=O)c23)cc1	active: 0.849 µM	
Cc1ccccc1OCC(=O)Nc1ccc2nc(SCC(N)=O)sc2c1	inconclusive: 10.7 µM [inhibitor, partial curve]	
CN1c2ccccc2C(=O)/C(=C\Nc2ccc(F)cc2)S1(=O)=O	active: 12 µM	
COc1ccc(-c2nn(-c3ccccc3)cc2C(=O)NC(=S)N2CCOCC2)cc1OC	inconclusive: 0.675 µM [inhibitor, full curve, poor fit]	
Cc1nc(SCC(=O)NCCc2ccc(Cl)cc2)nc(C)c1C	inactive	
CCOC(=O)c1ccc(NCc2ccc3c(c2)OCO3)cc1	inconclusive: 26.9 µM [inhibitor, single point]	
CCOC(=O)c1ccc(NC(=O)Nc2ccc(OC)c(OC)c2)cc1	inconclusive: 10.7 µM [inhibitor, partial curve, poor fit]	

SMILES	Potency	activity change, negative = inhibition
CC1=C(C(=O)Nc2ccccc2)C(c2ccc[nH]2)n2ncnc2N1 (stereo not given)	inactive	
CC(=O)c1ccc(NC(=O)CCc2nnc3ccc(N4CCC5(CC4)OCCO5)nn23)cc1	inconclusive: 19 µM [inhibitor, partial curve]	
Cc1cc(C)nc(N/N=C/c2ccc(N3CCOCC3)cc2)n1	inactive	
COc1cccc(NC(=O)c2cc3cccc(OC)c3o/c2=N\O)c1	active: 0.536 µM	
COc1cccc(NC(=O)NCCCCc2ccccc2)c1	inconclusive: 23.9 µM [inhibitor, single point]	
COCCCn1c(=O)c2sccc2n2c(CCCC(=O)Nc3cccc(C(F)(F)F)c3)nnc12	inactive	
O=S(=O)(Nc1ccc2c(c1)OCO2)c1ccc(Br)s1	inconclusive: 37.9 µM [inhibitor, partial curve, poor fit]	
Cc1cccc(N2CCN(C(=O)CNC(=O)c3ccccc3)CC2)c1C	inconclusive: 37.9 µM [inhibitor, partial curve, poor fit]	
CCNC(=O)N1CCCC(C(=O)c2ccc3cc(OC)ccc3c2)C1 (stereo not given)	inconclusive: 19 µM [inhibitor, single point]	
COc1cc(OC)c(C(=O)Nc2ccc(C(=O)c3ccccc3)cc2)cc1OC	inconclusive: 16.9 µM [inhibitor, partial curve]	
CN(Cc1ccon1)Cc1cn[nH]c1-c1ccc(-c2ccccc2)cc1	inconclusive: 37.9 µM [inhibitor, single point]	
COc1ccc(-c2c(-c3ccc(OCC(=O)NN)cc3O)n[nH]c2C(F)(F)F)cc1	inactive	
CCOC(=O)/C(=N\Nc1ccc(C(C)=O)cc1)c1csc(Nc2ccccc2)n1	inconclusive: 3.38 µM [inhibitor, full curve]	
CCCn1cc(NC(=O)c2cc(-c3ccccc3)on2)cn1	active: 13.5 µM	
C=C(C)CSc1nnc(-c2ccc(OC)cc2)n1N	inconclusive: 21.3 µM [inhibitor, single point]	
O=C(C[n+]1ccccc1)c1ccc(-c2ccccc2)cc1	inactive	
CC(C)Oc1ccc(/C=N/NC(=O)C2CCCN2S(=O)(=O)c2ccc(Cl)cc2)cc1 (stereo not given)	inconclusive: 37.9 µM [inhibitor, single point]	
Cc1n[nH]c(C)c1N=Nc1ccc(Br)cc1	inconclusive: 37.9 µM [inhibitor, partial curve, poor fit]	
O=C(NN1C(=O)/C(=C/c2ccc(O)c(O)c2)SC1=S)c1ccccc1	inconclusive: 23.9 µM [inhibitor, single point]	
C=CCNc1oc(-c2ccc(OCC)cc2)nc1C#N	inconclusive: 15.1 µM [inhibitor, partial curve, poor fit]	
CSc1nc(=S)c2[nH]c(=S)[nH]c2[nH]1	inconclusive: 13.5 µM [inhibitor, partial curve]	
CC(=O)Nc1nc(SCCCc2ccccc2)n[nH]1	inconclusive: 37.9 µM [inhibitor, partial curve, poor fit]	
COc1ccc(CNC(=O)c2coc(=O)c3ccccc23)cc1	inactive	
CCc1ccc(C2NC(=O)c3ccccc3O2)cc1 (stereo not given)	inconclusive: 13.5 µM [inhibitor, partial curve]	
CCNC(=O)CSc1nnc(CN2CCCCCC2=O)n1-c1ccccn1	inactive	

SMILES	Potency	activity change, negative = inhibition
COc1ccc(/C=C(\NC(=O)c2ccc(C)cc2)C(=O)N2CCCCC2)cc1	inactive	
COc1ccc(Br)cc1C1CC(=O)N2CN(C)CSC2=C1C#N (stereo not given)	inconclusive: 13.5 µM [inhibitor, partial curve, poor fit]	
O=C(COC(=O)CSc1nnc(-c2ccc(Cl)cc2)o1)Nc1cc(Cl)ccc1Cl	inconclusive: 19 µM [inhibitor, partial curve, poor fit]	
NS(=O)(=O)c1cccc(NC(=O)CSc2nn(-c3ccccc3)c(=S)s2)c1	inconclusive: 23.9 µM [inhibitor, partial curve, poor fit]	
Cc1ccc(Nc2nc(N)c([N+](=O)[O-])c(N3CCC(C)CC3)n2)cc1C	inactive	
CCC(=O)c1ccc(OCC(=O)OCC(=O)NC2CCCCCCC2)cc1	inactive	
COC(=O)c1ccc(COC(=O)c2cc3ccccc3oc2=O)cc1	inconclusive: 23.9 µM [inhibitor, single point]	
COc1ccc(Cc2nnc(NC(=O)c3ccc(OC)cc3OC)s2)cc1	inconclusive: 9.53 µM [inhibitor, partial curve, poor fit]	
Cc1nc2ccc([N+](=O)[O-])cc2[nH]1	inactive	
O=C(CSc1nnc(CNC(=O)c2ccccc2)o1)Nc1ccc2c(c1)OCCO2	inconclusive: 26.9 µM [inhibitor, single point]	
CCOc1cccc2cc(-c3nc4sc5c(c4c(=O)[nH]3)CCC(C)C5)c(=O)oc12 (stereo not given)	inconclusive: 19 µM [inhibitor, partial curve, poor fit]	
CC(C)Cn1c(-c2csc(C(C)C)c2)n[nH]c1=S	inconclusive: 21.3 µM [inhibitor, partial curve, poor fit]	
COc1cccc(CNc2ccccn2)c1O	inconclusive: 23.9 µM [inhibitor, single point]	
CCOC(=O)C(C)Sc1nc(-c2ccccn2)ncc1OC (stereo not given)	inactive	
N=C1c2ccccc2CN1NC(=O)c1cccc(S(=O)(=O)N2CCCCC2)c1	inactive	
Cc1cc(C(=O)Nc2ccc3c(c2)OCO3)cs1	active: 4.78 µM	
COc1ccc2cc(CCNC(=O)c3cccs3)c(=O)[nH]c2c1	active: 10.7 µM	
COc1cc(OC)cc(C(=O)N[C@H](C(=O)Nc2nc3ccc(S(C)(=O)=O)cc3s2)C(C)C)c1	inconclusive: 30.1 µM [inhibitor, partial curve, poor fit]	
CCC(=O)Nc1sc2c(c1C#N)CCCCC2		inactive: -1.99% [at 2.3 µM]
Cc1ccc(C(=O)OCC(=O)N2CCOCC2)cc1	inconclusive: 37.9 µM [inhibitor, partial curve, poor fit]	
O=C(COc1ccccc1)NCC(=O)NC1CCCCC1	inactive	
COc1ccc2c(c1)CCc1cn[nH]c1-2	inconclusive: 16.9 µM [inhibitor, partial curve]	
Cc1ccc(S(=O)(=O)N2CCC(=O)N(CCOC(=O)Nc3ccccc3C)CC2)cc1	inconclusive: 21.3 µM [inhibitor, single point]	
COc1ccc(CCNC(=O)Cn2nnc(-c3ccc(N4CCOCC4)cc3)n2)cc1OC	active: 3.01 µM	
CCOC(=O)C1=C(COC(=O)/C=C/c2ccccc2Cl)NC(=O)NC1C (stereo not given)	active: 26.9 µM	
